From publication PMC4336329 (PLoS ONE, 2015)
About 14,000 (4.5%) of roughly 310,000 compounds showed an effect of 50% or more. Effects have a minus sign here. Some of the results follow.

target: human ether-à-go-go-related gene (hERG) potassium channel (human, UniProt Q12809); test: primary screen, population patch clamp on CHO cells stably expressing hERG
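Also: peak tail current of the secondary pulse compared with the same well before compound.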

human ether-à-go-go-related gene (hERG) potassium channel, sequence (Q12809 whole entry, looked up): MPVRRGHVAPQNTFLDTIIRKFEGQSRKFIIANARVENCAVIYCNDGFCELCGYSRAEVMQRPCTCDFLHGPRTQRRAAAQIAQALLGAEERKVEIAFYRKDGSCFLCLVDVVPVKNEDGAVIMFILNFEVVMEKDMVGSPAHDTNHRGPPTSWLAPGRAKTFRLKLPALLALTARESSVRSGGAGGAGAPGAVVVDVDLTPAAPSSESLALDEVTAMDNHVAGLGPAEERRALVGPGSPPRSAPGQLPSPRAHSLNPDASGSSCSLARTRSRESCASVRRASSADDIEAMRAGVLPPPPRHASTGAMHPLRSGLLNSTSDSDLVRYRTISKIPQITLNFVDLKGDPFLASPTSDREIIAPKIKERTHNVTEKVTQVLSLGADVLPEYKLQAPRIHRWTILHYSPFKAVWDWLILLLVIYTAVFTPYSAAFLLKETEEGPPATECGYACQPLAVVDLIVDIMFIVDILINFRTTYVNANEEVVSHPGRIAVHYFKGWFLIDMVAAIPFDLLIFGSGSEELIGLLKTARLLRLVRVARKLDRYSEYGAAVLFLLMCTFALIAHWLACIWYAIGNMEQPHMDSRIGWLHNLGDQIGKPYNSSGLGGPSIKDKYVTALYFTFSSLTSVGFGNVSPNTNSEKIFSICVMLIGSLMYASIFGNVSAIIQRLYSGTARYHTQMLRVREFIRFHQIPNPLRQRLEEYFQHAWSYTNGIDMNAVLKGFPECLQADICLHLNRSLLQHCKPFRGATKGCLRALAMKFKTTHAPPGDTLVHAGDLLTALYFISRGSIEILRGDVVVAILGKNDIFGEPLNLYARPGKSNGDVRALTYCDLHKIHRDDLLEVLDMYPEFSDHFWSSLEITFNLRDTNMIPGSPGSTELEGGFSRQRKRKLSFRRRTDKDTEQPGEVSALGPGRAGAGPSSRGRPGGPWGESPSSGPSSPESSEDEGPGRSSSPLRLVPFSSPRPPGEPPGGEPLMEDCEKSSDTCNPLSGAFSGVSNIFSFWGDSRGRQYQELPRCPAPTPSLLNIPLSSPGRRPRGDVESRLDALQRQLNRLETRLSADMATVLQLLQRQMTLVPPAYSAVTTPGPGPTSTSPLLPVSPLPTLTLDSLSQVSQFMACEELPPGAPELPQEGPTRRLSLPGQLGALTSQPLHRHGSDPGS

| SMILES | hERG current change (%, negative = inhibition) at 10uM [%] |
| --- | --- |
| CCCn1c(SCC(=O)Nc2ccc(C)c(S(=O)(=O)N3CCOCC3)c2)n[nH]c1=O | 11 |
| CCn1c(SCC(=O)c2c(N)n(C3CC3)c(=O)[nH]c2=O)nnc1-c1ccccc1OC | 21.3 |
| CN(C)C(=O)CSc1nc2ccc(N3C(=O)c4ccccc4C3=O)cc2s1 | 8.41 |
| CCOC(=O)C1CCN(C(=O)Nc2ccc3c(c2)nc(C)n3C)CC1 | 0.694 |
| COc1ccc(CNC(=O)C(c2ccncc2)N(C(=O)Cc2cccs2)c2ccccc2C)cc1 (centres unmarked) | -2.18 |
| COC(=O)c1cn(C)c2ccc(S(=O)(=O)N3CCCC3)cc2c1=O | 2.16 |
| O=C(NCCc1ccc(Cl)cc1)C(=O)Nc1cc2c3c(c1)CC(=O)N3CCC2 | -6.93 |
| Cc1sc2ncnc(SCC(=O)NNC(=O)c3ccco3)c2c1C | 4.49 |
| O=c1cc(-c2ccc3c(c2)OCO3)oc2ccccc12 | -3.3 |
| CCCCCCCCCNC(=O)[C@H](NC(=O)COc1ccccc1)[C@@H]1NC(C(=O)OC)C(C)(C)S1 (some centres unmarked) | -0.969 |
| Cc1c(C#N)c2ccccc2n1CC(=O)N1CCCC1 | 8.41 |
| O=C(Nc1ccc2ccccc2c1)N1CCCN(CCOc2ccccc2)CC1 | -66 |
| CC(C)CCn1cnc2c(oc3nc4c(cc32)CCCC4)c1=O | -16.6 |
| C/C(=C\C(=O)c1ccc(Br)cc1)NCc1ccc(C)cc1 | 1.92 |
| CCOC(=O)c1ccc(N2C(=O)C3CCOc4ccccc4C32)cc1 (centres unmarked) | 12.1 |
| CCc1nc(SCc2cccnc2)[nH]c(=O)c1C | 22.3 |
| CCC(C)NC(=O)C1(C)CCC(=O)N1CCc1ccc(OC)c(OC)c1 (centres unmarked) | -5.3 |
| S=C(NCCc1cnc[nH]1)NC1CCCC1 | 23.2 |
| Cc1ccsc1/C=C(\C(=O)c1ccc(OC(C)C)cc1)c1nc2ccccc2o1 | 19.2 |
| O=C(NCCC1=CCCCC1)C1CCCN(S(=O)(=O)c2cccc3cccnc23)C1 (centres unmarked) | -34.1 |
| COc1ccc(-n2ncc3c(=O)n(CC(=O)Nc4ccc(S(=O)(=O)N5CCOCC5)cc4)cnc32)cc1 | -10.3 |
| CN1C(=O)C(=O)N(CC(=O)N2CCc3ccccc32)C1=O | 1.68 |

| SMILES | hERG current change (%, negative = inhibition) at 10uM [%] |
| --- | --- |
| Clc1ccc(-c2ccc(SCc3ccccn3)nn2)cc1 | 2.07 |
| CC(=O)COc1ccc2c(c1C)O/C(=C\c1ccco1)C2=O | 6.17 |
| CCOC(=O)CN1C(=O)C(O)(CC(=O)c2ccccn2)c2ccccc21 (centres unmarked) | 14.6 |
| Cc1ccc(C(=O)O/N=C/c2c(C)nn(C)c2Cl)cc1 | -8.98 |
| CN1CCN(C=NC2=NN(c3cccc(C(F)(F)F)c3)CC2)CC1 | -23.9 |
| CCn1cc(Cl)c(C(=O)Nc2ccc(OC)c(OC)c2)n1 | 11.2 |
| COc1ccc(CN2CC(C(=O)NCCC(C)C)CC2=O)cc1 (centres unmarked) | 10.5 |
| COc1cccc(Cn2cnc3c(sc4nc(C)cc(C)c43)c2=O)c1 | 12.2 |
| COc1ccccc1-c1cc(-c2ccc(C)cc2)nc(SCc2nnc(-c3ccccc3)o2)c1C#N | 18.3 |
| Cc1ccc(S(=O)(=O)N(CC(=O)NCc2ccccc2Cl)C(=O)N2CCN(C)CC2)cc1 | -6.5 |
| N/C(=N\OC(=O)CSc1ccccc1)c1ccncc1 | 0.55 |
| COC(=O)c1ccc(/C=N/NC(=O)CC(=O)NC2CCCCC2)cc1 | 22 |
| COc1ccccc1/C=C1\SC(=S)N(CCC(=O)NCCCn2ccnc2)C1=O | -44.7 |
| COc1ccc(CCNC(=O)COc2ccc(-c3ccc(C)cc3)cc2)cc1OC | -9.64 |
| COc1ccc(-c2nc3n(n2)C(c2ccncc2)C(C(N)=O)=C(C)N3)cc1 (centres unmarked) | 0.391 |
| CCN(Cc1cccs1)C(=O)c1cccc(S(=O)(=O)N2CCN(C)CC2)c1 | -14.1 |
| CC1CCc2[nH]c3ccc(C(=O)N(C)CC(=O)Nc4ccccc4Br)cc3c2C1 (centres unmarked) | 7.84 |
| CC(=O)Nc1ccc(S(=O)(=O)Nc2nc3ccccc3nc2Nc2cccc(O)c2)cc1 | 10.7 |
| COc1ccc(Nc2nc(C(=O)NCc3ccco3)cs2)cc1 | -14.4 |
| O=C(O)c1cccc(-c2ccc(/C=c3/sc4nc5ccccc5n4c3=O)o2)c1 | 8.79 |
| O=C(NN=C1CCCCCCC1)c1ccc(F)cc1 | 1.58 |
| O=[N+]([O-])c1ccc(O)c(C=Nc2cccc3ncccc23)c1 | 7.86 |

| SMILES | hERG current change (%, negative = inhibition) at 10uM [%] |
| --- | --- |
| CCOC(=O)/C(=C/C=C1\Sc2cc(OCC)c(OCC)cc2N1CC)C(C)=O | 3.32 |
| COc1ccc(-c2nnc(SCc3nc4ccccc4s3)n2C(C)C)cc1 | -67.7 |
| CCC(NC(=S)NC1CCCCC1)c1ccc(C(C)C)cc1 (centres unmarked) | 13.7 |
| COc1ccccc1NC(=O)COC(=O)c1ccc2c(c1)OCCO2 | 0.67 |
| COC(=O)C1=CN(Cc2ccc(C)cc2)C=C(C(=O)OC)C1c1cc(OC)c(OC)c(OC)c1 | -24.8 |
| CCOC(=O)c1cncc(C#CCO)c1 | -3.9 |
| Cc1ccc(/C(O)=C/C(=O)C(=O)NC23CC4CC(CC(C4)C2)C3)cc1 | 4.44 |
| COc1ccc(CNC(=O)COC(=O)c2ccc(C)c(S(=O)(=O)N3CCOCC3)c2)cc1OC | 6.13 |
| COC(=O)CN1C(=O)C(C)(C)Oc2ccc(C(=O)NC3CC3)cc21 | 0.0728 |
| O=C(CSc1nnc(C2CC2)n1-c1ccccc1)NCCc1ccccc1 | -7.68 |
| CCCCNC(=O)c1cn(C)c2ccc(S(=O)(=O)N3CCCC3)cc2c1=O | 12.6 |
| COC(=O)C1=C(C)NC(=O)CC1c1ccc(C(=O)OC)cc1 (centres unmarked) | 16.7 |
| COc1ccc(S(=O)(=O)c2c(N)n(Cc3ccco3)c3nc4ccccc4nc23)cc1 | -10.4 |
| c1cncc(-c2nn[nH]n2)c1 | 7.46 |
| C=CCn1c(SCC(=O)NC2CCCC2)nnc1-c1cccnc1 | 6.96 |
| CN1/C(=C\C=N\NC(=O)c2ccc(O)cc2)C(C)(C)c2ccccc21 | -23.5 |
| CCC1CCCCN1Cc1ccc(CNC(=O)CCc2nnc3ccc(N4CCCCC4)nn23)o1 (centres unmarked) | 18.2 |
| c1cnc2ccc(C(c3nnnn3C3CCCC3)N3CCSCC3)cc2c1 (centres unmarked) | -3.72 |
| CC(C(=O)Nc1ccccc1F)N1CCN(C)CC1.O=C(O)C(=O)O (centres unmarked) | 11.9 |
| COc1ccc(CCN2CCCC(CN(C)C(=O)c3ccoc3)C2)cc1 (centres unmarked) | -72.9 |
| Cc1cccc(C)c1NC(=O)CN1CCN(CC(=O)NCC2(N3CCCCC3)CCCCC2)CC1 | -9.24 |
| O=C(Cn1ncc2c([nH]c3ccccc32)c1=O)N1CCCCC1 | 10.6 |

| SMILES | hERG current change (%, negative = inhibition) at 10uM [%] |
| --- | --- |
| O=C(NCc1ccco1)c1ccc2c(c1)C(=O)N(C1CCCCC1)C2=O | -17.9 |
| CCOc1cc(C)c(Cl)cc1S(=O)(=O)n1cnc2ccccc21 | -4.88 |
| Cc1cc(C(=O)N/N=C/C=C/c2cccc([N+](=O)[O-])c2)n[nH]1 | -3.28 |
| CC(C)CCNC(=O)c1cccc(S(=O)(=O)N2CCc3ccccc32)c1 | 2.44 |
| CC(C)Cn1c(N)c(C(=O)COC(=O)c2cnccn2)c(=O)n(C)c1=O | -14.1 |
| O=C(Nc1cccc(-c2ccc(N3CCOCC3)nn2)c1)c1ccc([N+](=O)[O-])cc1 | -11.4 |
| COC(=O)Cc1[nH]n(-c2nc3ccccc3s2)c(=O)c1C(C)=Nc1ccc(C)cc1 | 5.94 |
| CCC(C(=O)Nc1ccsc1C(=O)OC)c1ccccc1 (centres unmarked) | 1.56 |
| CCOC(=O)C(NC(=O)c1ccc(OC)cc1)(N1CCCC1=O)C(F)(F)F (centres unmarked) | 6.11 |
| COc1ccc2c(O)c(-c3c(C)cc(C)cc3C)c(=O)[nH]c2c1 | 4.32 |
| O=C(NCC(=O)N(c1ccc(F)cc1)C(C(=O)NC1CCCC1)c1cccnc1)c1ccco1 (centres unmarked) | 13.5 |
| COc1ccc(CCNCc2csc3nc4ccccc4n23)cc1OC.Cl | -19.4 |
| CCOc1ccc2oc(C(=O)N(Cc3nnc(-c4ccccc4Cl)o3)C3CC3)c(C)c2c1 | -20.9 |
| CC(=O)Nc1cccc(C(=O)OC(C)C(=O)Nc2ccc(S(=O)(=O)N3CCCC3)cc2)c1 (centres unmarked) | 9.05 |
| CCOc1ccc(/C(O)=C2/C(=O)C(=O)N(CCOCCO)C2c2cccnc2)cc1 (centres unmarked) | -3.81 |
| CC(C)CNC(=O)C1CCCN(C(=O)NCc2ccccc2)C1 (centres unmarked) | 2.78 |
| Cc1ccc(C(=O)Nc2cccnc2)cc1S(=O)(=O)N1CCCC1 | 0.635 |
| O=C(Nc1ccc2c(c1)OCO2)c1sc2cc(Cl)ccc2c1Cl | -1.24 |
| O=C(NCCC1CCCCN1S(=O)(=O)c1ccc(F)cc1)C(=O)NCCN1CCOCC1 (centres unmarked) | -22.5 |
| O=C(CSc1ccccn1)N1CCN(C(=O)CSc2ccccn2)CC1 | -14.1 |
